Drawing on the antibiotic and cytotoxicity screens of Wong et al. (2023), this text covers cytotoxicity call for 29 compounds.

The list shows a part of the results.

The assay relates to HepG2. The experiment in a line: cytotoxicity call (relative viability < 0.9). The settings on record: 10 µM.
Turning to `C[C@@H]1CN([C@@H](C)CO)C(=O)c2cc(Br)cnc2O[C@@H]1CN(C)C(=O)Nc1ccc(F)cc1`, the cytotoxicity call was “inactive”.

On to `C[C@@H]1CN([C@H](C)CO)C(=O)Cc2cc(NC(=O)Nc3ccc(C(F)(F)F)cc3)ccc2O[C@H]1CN(C)Cc1ccc(C(=O)O)cc1`, for which the cytotoxicity call was “inactive”.

`C[C@@H]1CN([C@@H](C)CO)C(=O)Cc2cc(NC(=O)Cn3cnnn3)ccc2O[C@@H]1CN(C)S(C)(=O)=O`: the cytotoxicity call was “inactive”.

On to `C[C@@H]1CN([C@H](C)CO)C(=O)c2cc(NS(C)(=O)=O)ccc2O[C@@H]1CN(C)S(=O)(=O)c1ccccc1`, for which the cytotoxicity call was “inactive”.

Turning to `C[C@@H]1CN([C@@H](C)CO)C(=O)c2cc(NC(=O)c3ccncc3)ccc2O[C@@H](C)CCCCO[C@@H]1CN(C)C(=O)C1CCCCC1`, the cytotoxicity call is “inactive”.

For `Cc1ccc(S(=O)(=O)N2C[C@@H](O)COC[C@H]3O[C@@H](CC(=O)N[C@@H]4CCN(Cc5ccccc5)C4)CC[C@@H]32)cc1`, the cytotoxicity call was “inactive”.

In the case of `C[C@@H]1CN([C@H](C)CO)C(=O)Cc2cc(NC(=O)Nc3ccc4c(c3)OCO4)ccc2O[C@@H]1CN(C)C(=O)Nc1cccc2ccccc12`, the cytotoxicity call was “inactive”.

Turning to `CN1C(=O)c2cc(NC(=O)C3CCCC3)ccc2OC[C@H]2O[C@H](CC(=O)NCCc3ccncc3)CC[C@H]21`, the cytotoxicity call was “inactive”.

For the compound `Cc1noc(C)c1NC(=O)N(C)C[C@@H]1OCCCC[C@@H](C)Oc2ccc(NC(=O)C3CCCCC3)cc2C(=O)N([C@H](C)CO)C[C@H]1C`, the cytotoxicity call was “inactive”.

Turning to `COCC#Cc1cnc2c(c1)C(=O)N([C@H](C)CO)C[C@@H](C)[C@H](CN(C)S(=O)(=O)c1cccc(OC)c1)O2`, the cytotoxicity call is “inactive”.

With `C[C@H](CO)N1C[C@H](C)[C@H](CN(C)S(=O)(=O)c2cn(C)cn2)Oc2c(NC(=O)c3cnccn3)cccc2C1=O`, the cytotoxicity call is “inactive”.

As to `C[C@H]1CCCCO[C@H](CN(C)C(=O)Nc2ccc(C(F)(F)F)cc2)[C@@H](C)CN([C@@H](C)CO)C(=O)c2cc(NC(=O)Nc3ccccc3)ccc2O1`, the cytotoxicity call is “inactive”.

As for `CC(C)NC(=O)Nc1ccc2c(c1)CC(=O)N([C@@H](C)CO)C[C@@H](C)[C@H](CN(C)Cc1ccc(Oc3ccccc3)cc1)O2`, the cytotoxicity call was “inactive”.

As to `NC1CCN(C(=O)Nc2nncs2)CC1`, the cytotoxicity call is “inactive”.

For the compound `COc1ccc(NC(=O)N(C)C[C@@H]2Oc3ccc(NC(=O)Cn4cnnn4)cc3CC(=O)N([C@@H](C)CO)C[C@@H]2C)cc1`, the cytotoxicity call is “inactive”.

As for `C[C@@H]1CN([C@H](C)CO)C(=O)c2cc(NC(=O)Nc3cccc4ccccc34)ccc2O[C@@H]1CN(C)Cc1ccc(C(=O)O)cc1`, the cytotoxicity call is “inactive”.

As to `C[C@@H]1CN([C@@H](C)CO)C(=O)c2cccc(NC(=O)C3CC3)c2O[C@H]1CN(C)Cc1ccc(C(=O)O)cc1`, the cytotoxicity call was “inactive”.

Consider `Cc1ccc2nncn2n1`, for which the cytotoxicity call is “inactive”.

With `Cn1cnc(S(=O)(=O)N2C[C@@H](O)COC[C@H]3O[C@H](CC(=O)NCc4cccc(F)c4)CC[C@@H]32)c1`, the cytotoxicity call was “inactive”.

On to `COc1cccc(S(=O)(=O)N(C)C[C@H]2Oc3cc(Br)ccc3S(=O)(=O)N([C@@H](C)CO)C[C@H]2C)c1`, for which the cytotoxicity call was “inactive”.

For `COc1ccc(NC(=O)Nc2ccc3c(c2)C(=O)N([C@H](C)CO)C[C@H](C)[C@H](CN(C)S(=O)(=O)c2c(C)noc2C)OCCCC[C@@H](C)O3)cc1`, the cytotoxicity call was “inactive”.

For `C[C@@H]1CN([C@@H](C)CO)C(=O)c2c(c3ccccc3n2C)-c2ccccc2CO[C@H]1CN(C)C(=O)Nc1ccc(-c2ccccc2)cc1`, the cytotoxicity call was “inactive”.

As for `Cc1ccc(S(=O)(=O)N(C)C[C@H]2OCCCC[C@@H](C)Oc3ccc(NC(=O)NC4CCCCC4)cc3C(=O)N([C@H](C)CO)C[C@@H]2C)cc1`, the cytotoxicity call was “inactive”.

Consider `COc1ccccc1CNC(=O)C[C@@H]1C[C@@H]2c3cc(NC(=O)c4ccc5c(c4)OCO5)ccc3O[C@@H]2[C@H](CO)O1`, for which the cytotoxicity call was “inactive”.

Regarding `COc1cccc(S(=O)(=O)N(C)C[C@H]2OCc3cnnn3CCCC(=O)N([C@H](C)CO)C[C@H]2C)c1`, the cytotoxicity call is “inactive”.

With `C[C@@H]1CN([C@H](C)CO)C(=O)c2cccc(NC(=O)NC3CCCCC3)c2O[C@H]1CN(C)Cc1ccc(-c2ccccc2)cc1`, the cytotoxicity call was “inactive”.

With `Cc1sc2ncnc(N3CCC[C@@H](Cn4cc(C(C)(C)N)nn4)C3)c2c1C`, the cytotoxicity call is “inactive”.

On to `Cc1noc(C)c1S(=O)(=O)Nc1ccc2c(c1)CC(=O)N([C@@H](C)CO)C[C@@H](C)[C@@H](CN(C)CC1CC1)O2`, for which the cytotoxicity call was “inactive”.

For the compound `COc1ccc(S(=O)(=O)N2C[C@H](O)COC[C@@H]3O[C@H](CC(=O)N[C@H]4CCN(Cc5ccccc5)C4)CC[C@H]32)cc1`, the cytotoxicity call is “inactive”.
